{"source": "paper PMC4336329", "about": "(PLoS ONE, 2015)", "note": "About 14,000 (4.5%) of roughly 310,000 compounds showed an effect of 50% or more. Effects have a minus sign here. The list shows a part of the results.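 Note: peak tail current of the secondary pulse compared with the same well before compound.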"}
{"biological_target": "human ether-à-go-go-related gene (hERG) potassium channel (human, UniProt Q12809)", "sequence (Q12809 whole entry, looked up)": "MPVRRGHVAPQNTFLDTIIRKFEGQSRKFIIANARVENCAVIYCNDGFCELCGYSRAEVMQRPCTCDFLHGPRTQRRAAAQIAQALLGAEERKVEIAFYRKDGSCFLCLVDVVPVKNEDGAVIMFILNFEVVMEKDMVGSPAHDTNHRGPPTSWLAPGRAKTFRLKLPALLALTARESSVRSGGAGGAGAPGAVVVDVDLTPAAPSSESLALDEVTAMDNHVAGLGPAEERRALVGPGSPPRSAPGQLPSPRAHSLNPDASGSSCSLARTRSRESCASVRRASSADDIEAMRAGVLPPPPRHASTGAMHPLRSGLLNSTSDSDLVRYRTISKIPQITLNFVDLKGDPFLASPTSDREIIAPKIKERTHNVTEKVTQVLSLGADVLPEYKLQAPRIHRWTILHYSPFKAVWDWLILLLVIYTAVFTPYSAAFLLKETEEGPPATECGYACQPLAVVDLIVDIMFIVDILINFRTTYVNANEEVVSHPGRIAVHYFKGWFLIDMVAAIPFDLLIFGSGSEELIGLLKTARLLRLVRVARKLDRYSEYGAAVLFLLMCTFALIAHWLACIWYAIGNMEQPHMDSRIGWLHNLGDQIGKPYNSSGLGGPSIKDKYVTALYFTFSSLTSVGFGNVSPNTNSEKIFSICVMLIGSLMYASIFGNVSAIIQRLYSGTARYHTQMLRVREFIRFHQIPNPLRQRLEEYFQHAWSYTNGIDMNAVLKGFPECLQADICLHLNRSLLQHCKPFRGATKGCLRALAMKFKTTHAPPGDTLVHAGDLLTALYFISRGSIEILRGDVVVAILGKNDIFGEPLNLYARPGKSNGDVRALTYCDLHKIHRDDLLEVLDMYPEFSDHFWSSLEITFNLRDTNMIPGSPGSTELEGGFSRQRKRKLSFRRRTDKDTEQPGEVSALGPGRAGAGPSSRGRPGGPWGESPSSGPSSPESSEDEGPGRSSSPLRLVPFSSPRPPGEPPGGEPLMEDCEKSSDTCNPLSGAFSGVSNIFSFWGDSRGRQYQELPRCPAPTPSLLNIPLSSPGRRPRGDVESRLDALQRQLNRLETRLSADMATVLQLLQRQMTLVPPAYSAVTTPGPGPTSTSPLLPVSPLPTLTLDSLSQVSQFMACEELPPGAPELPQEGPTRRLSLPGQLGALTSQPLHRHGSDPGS", "test": "primary screen, population patch clamp on CHO cells stably expressing hERG", "units": {"hERG current change (%, negative = inhibition) at 10uM": "%"}}
{"smiles": "COc1ccc(NC(=O)c2cc(-c3ccc4c(c3)OCO4)on2)cc1", "hERG current change (%, negative = inhibition) at 10uM": -20.3}
{"smiles": "N#CCCN(Cc1ccccc1)C(=O)c1nccnc1C(=O)O", "hERG current change (%, negative = inhibition) at 10uM": 21}
{"smiles": "COc1ccc(C(O)(C2CCCCC2)C(CN2CCCC2)c2ccccc2)cc1.Cl", "note": "(stereo not drawn)", "hERG current change (%, negative = inhibition) at 10uM": -31.4}
{"smiles": "C#CCN1C(=O)C(O)(CC(=O)c2cc(OC)ccc2OC)c2ccccc21", "note": "(stereo not drawn)", "hERG current change (%, negative = inhibition) at 10uM": 5.73}
{"smiles": "O=C(COc1c(F)c(F)c(C(F)(F)F)c(F)c1F)Nc1ccc(N2CCOCC2)c(Cl)c1", "hERG current change (%, negative = inhibition) at 10uM": -9.46}
{"smiles": "Cc1ccc(C(=O)Nc2ccc(N3CCOCC3)cc2)cc1S(=O)(=O)N1CCCCC1", "hERG current change (%, negative = inhibition) at 10uM": -10.1}
{"smiles": "O=C(NCc1ccc(Cl)cc1Cl)C1CCN(S(=O)(=O)c2ccc3c(c2)OCCCO3)CC1", "hERG current change (%, negative = inhibition) at 10uM": -7.29}
{"smiles": "Cc1ccc2nc(-c3ccc(NS(=O)(=O)c4c(C)n(C)c(=O)n(C)c4=O)cc3)sc2c1", "hERG current change (%, negative = inhibition) at 10uM": -3.97}
{"smiles": "O=C(Cn1c(COc2ccc(Cl)cc2)nc2ccccc21)NCC(F)(F)F", "hERG current change (%, negative = inhibition) at 10uM": 13.9}
{"smiles": "O=C1c2ccccc2-c2nc3ccccc3n21", "hERG current change (%, negative = inhibition) at 10uM": 6.8}
{"smiles": "CCOc1ccc(Br)cc1S(=O)(=O)N1CCCC1", "hERG current change (%, negative = inhibition) at 10uM": -7.56}
{"smiles": "O=C(N[C@@H](Cc1ccccc1)C(=O)NC1CCCCC1)c1ccco1", "hERG current change (%, negative = inhibition) at 10uM": 6}
{"smiles": "Cc1ccc(N=c2c([N+](=O)[O-])nn(-c3ccc4c(c3)OCCO4)n2O)cc1F", "hERG current change (%, negative = inhibition) at 10uM": 6.13}
{"smiles": "CC(C)CCNC(=O)CN(CCCN1CCOCC1)C(=O)Cn1nnc(-c2ccc(F)cc2)n1", "hERG current change (%, negative = inhibition) at 10uM": -28}
{"smiles": "COC(=O)/C(=C/c1ccc2c(c1)c1ccccc1n2C)NC(=O)c1ccccc1", "hERG current change (%, negative = inhibition) at 10uM": 8.1}
{"smiles": "CCOc1ccccc1NC(=O)CSc1nnc2ccc(-c3ccncc3)nn12", "hERG current change (%, negative = inhibition) at 10uM": -54.3}
{"smiles": "CC1(C)Cc2c(cnn2-c2ccccc2)C(NC(=O)CCN2CCCC2=O)C1", "note": "(stereo not drawn)", "hERG current change (%, negative = inhibition) at 10uM": 6.21}
{"smiles": "CC(C)(C)C(=O)NC(=S)Nc1sc2c(c1C#N)CCCCC2", "hERG current change (%, negative = inhibition) at 10uM": 2.15}
{"smiles": "CCOc1ccc(N(C)S(=O)(=O)c2ccc3[nH]cc(C(=O)NCC(OC)OC)c(=O)c3c2)cc1", "hERG current change (%, negative = inhibition) at 10uM": 6.94}
{"smiles": "Clc1ccc(-n2cc(-c3ccc(Br)cc3)[n+]3c2CCCCC3)cc1.[Br-]", "hERG current change (%, negative = inhibition) at 10uM": -49.4}
{"smiles": "CCCCn1c(N)c(N(CCOC)C(=O)c2sc3cc(F)ccc3c2Cl)c(=O)[nH]c1=O", "hERG current change (%, negative = inhibition) at 10uM": -14}
{"smiles": "O=c1cc(O)c2sc(Nc3ccc(F)c(Cl)c3)nc2[nH]1", "hERG current change (%, negative = inhibition) at 10uM": 34.2}
{"smiles": "CCOc1cc(NC(=O)c2ccco2)c(OCC)cc1NC(=O)COc1ccccc1", "hERG current change (%, negative = inhibition) at 10uM": 0.786}
{"smiles": "O=C(c1ccccc1)C1Oc2ccccc2C2CC(c3cccs3)=NN12", "note": "(stereo not drawn)", "hERG current change (%, negative = inhibition) at 10uM": -0.576}
{"smiles": "COc1ccc(N2CCN(Cc3cc(=O)oc4cc5c(cc34)CCCC5)CC2)cc1", "hERG current change (%, negative = inhibition) at 10uM": 6.8}
{"smiles": "Cc1c(C(=O)NNC(=S)Nc2cccc(Cl)c2)nnn1-c1ccccc1", "hERG current change (%, negative = inhibition) at 10uM": -7.53}
{"smiles": "NC(=O)c1nsc(C(=O)N(CCc2ccccc2)C(C(=O)NC2CCCC2)c2ccco2)c1N", "note": "(stereo not drawn)", "hERG current change (%, negative = inhibition) at 10uM": -29.3}
{"smiles": "Nn1c(COc2ccccc2)nnc1SCc1cc(=O)[nH]c2ccccc12", "hERG current change (%, negative = inhibition) at 10uM": -14.3}
{"smiles": "CN(C)CCNC(=O)C(=O)NCC1OCCN1S(=O)(=O)c1ccc2c(c1)OCCO2", "note": "(stereo not drawn)", "hERG current change (%, negative = inhibition) at 10uM": 12.7}
{"smiles": "COc1ccc(NC(=O)c2c3c(nc4ccccc24)CCN(Cc2ccccc2)C3)c(OC)c1", "hERG current change (%, negative = inhibition) at 10uM": -15.4}
{"smiles": "CC1CCCN(C(=O)c2cn(-c3ccccc3)nc2-c2cccnc2)C1", "note": "(stereo not drawn)", "hERG current change (%, negative = inhibition) at 10uM": -15.7}
{"smiles": "C/C(=N\\OC(=O)c1cccc(Cl)c1)c1sc(C)nc1C", "hERG current change (%, negative = inhibition) at 10uM": 11}
{"smiles": "Cc1ccc(NC(=O)NCCN2CCN(c3ccccc3)CC2)cc1Cl", "hERG current change (%, negative = inhibition) at 10uM": 16.7}
{"smiles": "Cc1ccccc1C(=O)NCC(=O)OCCOc1ccc(C(C)C)c(C)c1", "hERG current change (%, negative = inhibition) at 10uM": -19.3}
{"smiles": "N#CCCn1cc(C(=O)N2CCOCC2)c(-c2ccc3c(c2)OCCO3)n1", "hERG current change (%, negative = inhibition) at 10uM": 7.33}
{"smiles": "CCCCCCCC(O)CC(CC1CCCCC1)C(=O)NN", "note": "(stereo not drawn)", "hERG current change (%, negative = inhibition) at 10uM": -5.64}
{"smiles": "Cc1cc(NS(=O)(=O)c2ccc(NC(=O)C(c3ccccc3)c3ccccc3)cc2)no1", "hERG current change (%, negative = inhibition) at 10uM": 0.966}
{"smiles": "Cn1cc(-c2nc3ccccc3[nH]2)c2ccccc21", "hERG current change (%, negative = inhibition) at 10uM": -31.4}
{"smiles": "O=c1nc2scc(-c3ccccc3)n2c2ccccc12", "hERG current change (%, negative = inhibition) at 10uM": 14.2}
{"smiles": "CC(NC(=O)Cc1ccc(S(=O)(=O)N2CCCCC2)cc1)c1ccccc1", "note": "(stereo not drawn)", "hERG current change (%, negative = inhibition) at 10uM": -8.73}
{"smiles": "CCN(CC)C(=O)Cn1cc(C(=O)C(=O)N(CC)C2CCCCC2)c2ccccc21", "hERG current change (%, negative = inhibition) at 10uM": -4.07}
{"smiles": "Cc1ccc(C)c(NC(=O)c2nnn(Cc3ccccc3)c2N)c1", "hERG current change (%, negative = inhibition) at 10uM": -6.11}
{"smiles": "Cc1cc(=O)[nH]c(N/N=C/c2cccc(Br)c2)n1", "hERG current change (%, negative = inhibition) at 10uM": -16.7}
{"smiles": "Cc1[nH]c(=O)[nH]c(=O)c1S(=O)(=O)NCCOC12CC3CC(CC(C3)C1)C2", "hERG current change (%, negative = inhibition) at 10uM": 4.6}
{"smiles": "CC(=O)N1CCc2cc(S(=O)(=O)NCCC(=O)N3CCN(c4ccccn4)CC3)ccc21", "hERG current change (%, negative = inhibition) at 10uM": -20.1}
{"smiles": "O=C(c1cccc(NS(=O)(=O)c2cccc(C(F)(F)F)c2)c1)N1CCOCC1", "hERG current change (%, negative = inhibition) at 10uM": 5.74}
{"smiles": "CC(C)C12CN3CC(C(C)C)(CN(C1)C3c1ccc([N+](=O)[O-])o1)C2=O", "note": "(stereo not drawn)", "hERG current change (%, negative = inhibition) at 10uM": -24.9}
{"smiles": "CCCCCOC(=O)C1=C(C)NC(=O)NC1c1ccccc1", "note": "(stereo not drawn)", "hERG current change (%, negative = inhibition) at 10uM": 5.18}
{"smiles": "CCN(CC)C(=O)N1CCc2ccccc21", "hERG current change (%, negative = inhibition) at 10uM": 0.177}
{"smiles": "O=C(CNC(=O)c1ccc([N+](=O)[O-])cc1)N/N=C\\c1ccc(OC(=O)c2ccccc2)cc1", "hERG current change (%, negative = inhibition) at 10uM": 8.23}
{"smiles": "CCOC(=O)CN1C(=O)S/C(=C/c2ccc(OCc3ccc(C(=O)O)cc3)cc2)C1=O", "hERG current change (%, negative = inhibition) at 10uM": 23.1}
{"smiles": "COC(=O)Nc1sc2nc(C)cc(C)c2c1-n1cccc1", "hERG current change (%, negative = inhibition) at 10uM": -20.5}
{"smiles": "CCOc1ccccc1NC(=O)C(C)SCc1ccccc1", "note": "(stereo not drawn)", "hERG current change (%, negative = inhibition) at 10uM": 10.9}
{"smiles": "CCCCc1nnc(NC(=O)CCc2ccccc2)s1", "hERG current change (%, negative = inhibition) at 10uM": 19.3}
